# PubChem BioAssay (NCATS)
# Values joined by “and” are separate entries in the source; they are usually repeats but may differ in a detail not shown here. Identical values can stand only once. Inconclusive means that the source gave no clear call. Such entries were picked first, then a sample of the others. For some of these results: Where the call is inconclusive, the potency comes from a doubtful curve fit. Active and inactive are the calls of the source. Unless noted, calls follow the shape of the dose curve; as a rule, active = well fitted curve in the direction sought with a large enough effect; inconclusive = small, poorly fitted or top-dose-only effect, or another doubt; inactive = no such curve, though single readings can be large; an effect the other way counts as inactive or inconclusive.
# Assays:
# [1] = qHTS of pediatric cancer cell lines to identify multiple opportunities for drug repurposing: Primary screen for A673 cells (AID 1347092); conditions: A673 Ewing sarcoma viability, CellTiter-Glo ATP luminescence, 48 h; activity change, negative = cytotoxic: at 46 µM (top of the series); also: nearly all actives have a fitted effect of over 45% in size
# How it was run: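 A673 cells (500-1,000 cells/well in growth media) were pre-incubated 5 h at 37 degrees C, then exposed to compounds for 48 h. Viability was read as CellTiter-Glo luminescence; concentration-response curves came directly from the primary screen.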
# [2] = qHTS of pediatric cancer cell lines to identify multiple opportunities for drug repurposing: Primary screen for SK-N-MC cells (AID 1347093); conditions: SK-N-MC viability, CellTiter-Glo luminescence, 48 h; activity change, negative = cytotoxic: at 46 µM (top of the series)
# How it was run: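 Metabolically active cells were quantified by ATP-dependent luminescence (CellTiter-Glo, 15 min at room temperature) following 48 h treatment. Cells had been plated at 500-1,000 per well and settled for 5 h beforehand.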
# [3] = qHTS of pediatric cancer cell lines to identify multiple opportunities for drug repurposing: Primary screen for NB-EBc1 cells (AID 1347095)
# How it was run: (§1)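 Luminescence from CellTiter-Glo served as readout of metabolically active cells after 48 h compound exposure. Titrations: MIPE 11-point, from 0.78 nM; NPC 8-point, from 0.59 nM (final). Concentration-response curves came straight from the primary screen.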
# [4] = qHTS of pediatric cancer cell lines to identify multiple opportunities for drug repurposing: Primary screen for Saos-2 cells (AID 1347097); conditions: Saos-2 viability, CellTiter-Glo ATP luminescence, 48 h; activity change, negative = cytotoxic: at 46 µM (top of the series); also: nearly all actives have a fitted effect of over 40% in size
# How it was run: as §1
# [5] = qHTS of pediatric cancer cell lines to identify multiple opportunities for drug repurposing: Primary screen for BT-12 cells (AID 1347101); also: nearly all actives have a fitted effect of over 25% in size
# How it was run: (§2)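 Cells (500-1,000/well) rested 5 h, then received compounds for 48 h; metabolically active cells were measured by CellTiter-Glo luminescence. Final concentrations spanned up to 46 µM (MIPE, 11-point) or 0.59 nM-46 µM (NPC, 8-point) in primary screens, 11-point in follow-ups.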
# [6] = qHTS of pediatric cancer cell lines to identify multiple opportunities for drug repurposing: Primary screen for OHS-50 cells (AID 1347103); conditions: OHS-50 osteosarcoma viability, CellTiter-Glo luminescence, 48 h; activity change, negative = cytotoxic: at 57.3 µM (top of the series); also: nearly all actives have a fitted effect of over 40% in size
# How it was run: as §2
# [7] = Primary qHTS for small molecule stabilizers of the endoplasmic reticulum resident proteome: Secreted ER Calcium Modulated Protein (SERCaMP) assay (AID 1508630); conditions: SH-SY5Y GLuc-SERCaMP (Gaussia luciferase released on ER calcium loss) secretion, thapsigargin, luminescence; series mostly up to 38.4 µM
# How it was run: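 The SH-SY5Y reporter protocol was run at 3 concentrations up to 38.3 uM (primary) or 11 concentrations (follow-up): 16 h compound, 100 nM thapsigargin for 4 h, then extracellular luciferase luminescence.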
# [8] = A High-Content qHTS Against Drug Library for the Identification of Small Molecules that Inhibit DYT1 Early Onset Primary Dystonia-Associated Cell Pathology (AID 1645839; calls by dose curve)
# How it was run: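 Induced EGFP-delE TorsinA cells are imaged after 48 h of compound treatment. Punctate fusion-protein distribution gives the %pathology value, while nuclei counts flag toxicity. Wild-type EGFP-hTOR1A cells define the normal pattern.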
# [9] = molecular target: Cytochrome P450 2D6 (Homo sapiens) (UniProt P10635); assay: Cytochrome P450 family 2 subfamily D member 6 (CYP2D6) small molecule antagonists: luciferase biochemical (cell-free) qHTS assay (AID 1645840; active = well fitted curve in the direction sought with a large enough effect in the repeat runs; inconclusive = weak or mixed curves; inactive = no such curve, though single readings can be large; an effect the other way counts as inactive or inconclusive; also: nearly all actives have a fitted effect of over 55% in size)
# How it was run: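 P450-Glo CYP2D6 system: proluciferin substrate converted by enzyme to luciferin, read by luminescence proportional to activity. Enzyme-substrate mix with compound 10 min at room temperature, then NADPH regeneration 1 h before detection reagent.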
# [10] = molecular target: Cytochrome P450 2C9 (Homo sapiens) (UniProt P11712); assay: Cytochrome P450 family 2 subfamily C member 9 (CYP2C9) small molecule antagonists: luciferase biochemical (cell-free) qHTS assay (AID 1645842; active = well fitted curve in the direction sought with a large enough effect in the repeat runs; inconclusive = weak or mixed curves; inactive = no such curve, though single readings can be large; an effect the other way counts as inactive or inconclusive; also: nearly all actives have a fitted effect of over 55% in size)
# How it was run: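 P450-Glo CYP2C9 system: proluciferin substrate with enzyme in mix containing 0.4% BSA, 10 min at room temperature, then NADPH regeneration solution added and incubated 1 h at 37C. Detection reagent stopped reaction; luminescence read after 20 min as RLU.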
# [11] = Primary qHTS for inhibitors of nuclear receptor binding SET domain protein 2 (NSD2) in an isogenic RCH-ACV NSD2 p.E1099K mutant (9B) (AID 1645876); conditions: activity change, negative = viability loss: at 44.9 µM (top of the series) unless noted; also: nearly all actives have a fitted effect of over 70% in size
# [12] = Primary qHTS for inhibitors of nuclear receptor binding SET domain protein 2 (NSD2) in an RCH-ACV wild type WT cells (2C) (AID 1645877); conditions: activity change, negative = cell killing: at 44.9 µM (top of the series) unless noted; also: nearly all actives have a fitted effect of over 70% in size
# MKL-1 = assay: qHTS assay to identify novel small-molecules to repurpose for Merkel cell carcinoma treatment (AID 1296009); conditions: MCC and control cell lines, CellTiter-Glo viability, 72 h; series mostly up to 46 µM; also: nearly all actives have a fitted effect of over 60% in size
# How it was run: (§3)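 Viability readout: ATP luminescence (CellTiter-Glo) after 72 hr drug exposure at 37 degree celsius. Dose-response format was 8 points for NPC and 11 points for MIPE; data normalized to in-plate controls.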
# [13] = qHTS of pediatric cancer cell lines to identify multiple opportunities for drug repurposing: Primary screen for SK-N-SH cells (AID 1347098); also: nearly all actives have a fitted effect of over 65% in size;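 as to activity change, negative = cytotoxic: DMSO served as neutral control and bortezomib at 2.3 µM as positive control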
# How it was run: as §2
# MKL-2 = assay: qHTS assay to identify novel small-molecules to repurpose for Merkel cell carcinoma treatment (AID 1296009); conditions: MCC and control cell lines, CellTiter-Glo viability, 72 h; series mostly up to 46 µM; also: nearly all actives have a fitted effect of over 60% in size
# How it was run: as §3
# UISO = assay: as above; conditions: MCC and control cell lines, CellTiter-Glo viability, 72 h; series mostly up to 46 µM
# How it was run: as §3
# WaGa = assay: as above; conditions: MCC and control cell lines, CellTiter-Glo viability, 72 h; series mostly up to 46 µM
# How it was run: as §3
# [14] = Drug repurposing screens with cells derived from glioblastoma tumor samples (AID 1345199); conditions: GBM patient neurospheres viability, ATP luminescence, 48 h; Potency: tumour line A unless noted; series mostly up to 46 µM; also: nearly all actives have a fitted effect of over 40% in size
# How it was run: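 Primary testing used CD133+ neurospheres from four GBM patients, seven concentrations, 48 h exposure and ATP-based viability; confirmation added three slower-growing patient lines.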
# Potency is read from the fitted curve at half-maximal effect; tags tell the direction and shape of the fitted curve.
# UniProt P10635, sequence (P10635 whole entry, looked up): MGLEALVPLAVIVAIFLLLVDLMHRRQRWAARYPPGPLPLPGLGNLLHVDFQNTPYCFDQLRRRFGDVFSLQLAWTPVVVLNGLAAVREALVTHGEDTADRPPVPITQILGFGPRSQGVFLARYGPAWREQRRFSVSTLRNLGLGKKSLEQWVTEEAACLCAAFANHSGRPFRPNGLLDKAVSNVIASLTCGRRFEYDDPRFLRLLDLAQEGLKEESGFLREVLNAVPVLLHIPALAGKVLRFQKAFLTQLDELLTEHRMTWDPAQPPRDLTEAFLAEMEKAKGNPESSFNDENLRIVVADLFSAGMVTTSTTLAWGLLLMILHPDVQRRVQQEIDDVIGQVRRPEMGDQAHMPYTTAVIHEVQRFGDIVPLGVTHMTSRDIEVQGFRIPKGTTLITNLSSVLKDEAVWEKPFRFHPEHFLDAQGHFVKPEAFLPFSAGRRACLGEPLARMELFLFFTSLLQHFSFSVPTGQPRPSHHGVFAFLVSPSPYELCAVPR
# UniProt P11712, sequence (P11712 whole entry, looked up): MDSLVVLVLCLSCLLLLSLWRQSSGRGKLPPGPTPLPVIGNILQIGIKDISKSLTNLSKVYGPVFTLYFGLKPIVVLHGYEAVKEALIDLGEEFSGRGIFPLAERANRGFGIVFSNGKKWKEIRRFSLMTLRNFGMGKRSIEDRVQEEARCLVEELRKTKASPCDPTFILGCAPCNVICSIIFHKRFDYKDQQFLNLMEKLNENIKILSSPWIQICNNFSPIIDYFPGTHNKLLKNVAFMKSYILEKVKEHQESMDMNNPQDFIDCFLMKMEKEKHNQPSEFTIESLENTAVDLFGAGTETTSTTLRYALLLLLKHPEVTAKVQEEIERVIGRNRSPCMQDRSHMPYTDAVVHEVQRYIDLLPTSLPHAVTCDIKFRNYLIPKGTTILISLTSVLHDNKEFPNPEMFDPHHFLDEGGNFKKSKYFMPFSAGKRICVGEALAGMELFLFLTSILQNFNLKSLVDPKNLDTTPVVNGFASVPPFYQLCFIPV
structure (smiles),measurement,setting,value
CCCCCCOC(=O)NC(=N)c1ccc(NCc2nc3cc(C(=O)N(CCC(=O)OCC)c4ccccn4)ccc3n2C)cc1,Potency,[1],"inconclusive: 33.5 µM [cytotoxic, single point]"
same,Potency,[2],"inconclusive: 29.9 µM [cytotoxic, single point]"
same,Potency,[3],"inconclusive: 29.9 µM [cytotoxic, single point]"
same,Potency,[4],"inconclusive: 21.1 µM [cytotoxic, single point]"
same,Potency,[5],"inconclusive: 13.8 µM [cytotoxic, partial curve]"
same,Potency,[6],"inconclusive: 30.9 µM [cytotoxic, single point]"
same,Potency,[7],"inconclusive: 28.2 µM [inhibitor, single point]"
same,Potency,[8],"inconclusive: 22.4 µM [inhibitor, single point]"
same,Potency,[9],"inconclusive: 24.5 µM [inhibitor, single point]"
same,Potency,[10],active: 1.38 µM
same,Potency,[11],"inconclusive: 18.8 µM [inhibitor, single point]"
same,Potency,[12],"inconclusive: 29.9 µM [inhibitor, single point] and inconclusive: 26.3 µM [inhibitor, single point]"
same,Potency,MKL-1,active: 8.41 µM
COc1cc(NS(=O)(=O)c2ccc(N)cc2)nc(C)n1,Potency,[8],inactive
same,Potency,[9],inactive
same,Potency,MKL-1,inactive
COc1ccc([C@@H]2CNC(=O)C2)cc1OC1CCCC1,Potency,[2],active: 0.469 µM
same,Potency,[4],"inconclusive: 20.9 µM [cytotoxic, partial curve]"
same,Potency,[13],active: 3.04 µM
same,Potency,[5],"inconclusive: 30.6 µM [cytotoxic, partial curve, poor fit]"
same,Potency,MKL-2,"inconclusive: 37.2 µM [inhibitor, single point]"
same,Potency,UISO,"inconclusive: 26.4 µM [inhibitor, single point]"
same,Potency,WaGa,"inconclusive: 20.9 µM [inhibitor, partial curve, poor fit]"
CC1(C)S[C@@H]2[C@H](NC(=O)C(C(=O)O)c3ccccc3)C(=O)N2[C@H]1C(=O)O (some centres undefined),Potency,[3],inactive
same,Potency,[13],inactive
same,Potency,[5],inactive
same,Potency,[7],"inconclusive: 2 µM [inhibitor, full curve]"
same,Potency,[12],"inconclusive: 29.9 µM [inhibitor, single point]"
same,Potency,MKL-1,inactive
C[C@H]1C[C@H]2[C@@H]3CCC4=CC(=O)C=C[C@]4(C)[C@@H]3C(=O)C[C@]2(C)[C@@]1(O)C(=O)CO,Potency,[1],inactive
same,Potency,[2],"inconclusive: 41.8 µM [cytotoxic, partial curve, poor fit]"
same,Potency,[6],"inconclusive: 0.001 µM [cytotoxic, full curve]"
same,Potency,MKL-2,inactive
same,Potency,UISO,inactive
same,Potency,[14],"inconclusive: 25.1 µM [inhibitor, partial curve]"
O=C(O)c1ccccc1-c1ccc(C(F)(F)F)cc1,Potency,[3],inactive
same,Potency,[5],inactive
same,Potency,[6],inactive
same,Potency,[9],inactive
same,Potency,[12],inactive
same,Potency,MKL-2,inactive
same,Potency,UISO,inactive
CC(Cc1cccc(C(F)(F)F)c1)NCCOC(=O)c1ccccc1 (centres undefined),Potency,[2],"inconclusive: 6.68 µM [cytotoxic, partial curve]"
same,Potency,[3],"inconclusive: 33.5 µM [cytotoxic, single point]"
same,Potency,[4],"inconclusive: 26.6 µM [cytotoxic, single point]"
same,Potency,[5],inactive
same,Potency,[6],"inconclusive: 27.6 µM [cytotoxic, single point]"
same,Potency,[8],inactive
same,Potency,[11],"inconclusive: 29.9 µM [inhibitor, single point]"
same,Potency,[12],"inconclusive: 21.1 µM [inhibitor, single point]"
same,Potency,MKL-1,inactive
CC(=O)OCC1=C(C(=O)O)N2C(=O)[C@@H](NC(=O)CSc3ccncc3)[C@H]2SC1,Potency,[2],"inconclusive: 1.5 µM [cytotoxic, partial curve]"
same,Potency,[6],inactive
same,Potency,[8],inactive
same,Potency,[11],"inconclusive: 8.41 µM [inhibitor, partial curve]"
same,Potency,[12],"inconclusive: 2.99 µM [inhibitor, full curve]"
same,Potency,MKL-2,"inconclusive: 1.68 µM [inhibitor, full curve]"
same,Potency,WaGa,"inconclusive: 23.7 µM [inhibitor, single point]"
same,Potency,[14],inactive
O=C(OCC1(COC(=O)c2cccnc2)CCCC(COC(=O)c2cccnc2)(COC(=O)c2cccnc2)C1O)c1cccnc1,Potency,[2],inactive
same,Potency,[3],inactive
same,Potency,[6],inactive
same,Potency,MKL-1,inactive
same,Potency,[14],"inconclusive: 10 µM [inhibitor, partial curve]"
